Changes are numbered by the printed parent chain. In names and notes the source's numbering stands. These are yes or no findings as the source states them, for the method shown. In cells and extracts the contact can be indirect. Some results given as binding are weak or reduced against the parent protein; the word gives no strength. For part of these data: Where a sequence is shown, tags or fusion partners need not be part of it.
B1: Myc-tagged PrxII WT (PrxII-Myc) (enzyme, UniProt P32119 2-198)
chain: ASGNARIGKPAPDFKATAVVDGAFKEVKLSDYKGKYVVLFFYPLDFTFVCPTEIIAFSNRAEDFRKLGCEVLGVSVDSQFTHLAWINTPRKEGGLGPLNIPLLADVTRRLSEDYGVLKTDEGIAYRGLFIIDGKGVLRQITVNDLPVGRSVDEALRLVQAFQYTDEHGEVCPAGWKPGSDTIKPNVDDSKEYFSKHN
B2: Myc-tagged PrxII G9V mutant (enzyme, UniProt P32119 2-198)
chain: B1 chain with G8V
B3: Myc-tagged PrxII G23V mutant (enzyme, UniProt P32119 2-198)
chain: B1 chain with G22V
B4: Myc-tagged PrxII G116V mutant (enzyme, UniProt P32119 2-198)
chain: B1 chain with G115V
B5: PrxI-T111R mutant (enzyme, UniProt Q06830 1-199)
chain: MSSGNAKIGHPAPNFKATAVMPDGQFKDISLSDYKGKYVVFFFYPLDFTFVCPTEIIAFSDRAEEFKKLNCQVIGASVDSHFCHLAWVNTPKKQGGLGPMNIPLVSDPKRRIAQDYGVLKADEGISFRGLFIIDDKGILRQITVNDLPVGRSVDETLRLVQAFQFTDKHGEVCPAGWKPGSDTIKPDVQKSKEYFSKQK

Chains of the proteins cited; added tags and fusions are not shown.
UniProt O15169: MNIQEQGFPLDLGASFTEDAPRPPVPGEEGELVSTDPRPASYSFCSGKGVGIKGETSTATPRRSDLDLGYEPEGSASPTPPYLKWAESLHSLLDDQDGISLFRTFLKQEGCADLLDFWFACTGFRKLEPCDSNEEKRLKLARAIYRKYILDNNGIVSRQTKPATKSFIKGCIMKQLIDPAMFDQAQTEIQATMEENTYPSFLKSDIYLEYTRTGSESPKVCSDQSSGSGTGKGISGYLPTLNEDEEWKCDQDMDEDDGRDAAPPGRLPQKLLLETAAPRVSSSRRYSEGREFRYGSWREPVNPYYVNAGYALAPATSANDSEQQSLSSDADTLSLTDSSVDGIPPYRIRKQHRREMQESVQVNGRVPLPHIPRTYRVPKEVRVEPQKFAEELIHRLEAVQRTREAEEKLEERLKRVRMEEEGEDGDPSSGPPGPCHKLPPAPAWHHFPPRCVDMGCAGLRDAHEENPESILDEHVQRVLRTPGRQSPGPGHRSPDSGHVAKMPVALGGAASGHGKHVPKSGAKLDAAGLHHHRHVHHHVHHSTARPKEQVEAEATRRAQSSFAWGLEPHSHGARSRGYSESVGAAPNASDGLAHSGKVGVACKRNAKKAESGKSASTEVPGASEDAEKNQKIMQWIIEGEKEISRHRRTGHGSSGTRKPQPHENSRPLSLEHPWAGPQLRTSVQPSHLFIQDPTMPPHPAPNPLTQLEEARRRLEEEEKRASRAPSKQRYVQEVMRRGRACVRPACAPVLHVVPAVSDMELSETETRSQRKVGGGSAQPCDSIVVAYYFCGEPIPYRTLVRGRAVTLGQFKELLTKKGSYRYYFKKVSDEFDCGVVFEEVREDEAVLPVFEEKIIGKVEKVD
UniProt O95271: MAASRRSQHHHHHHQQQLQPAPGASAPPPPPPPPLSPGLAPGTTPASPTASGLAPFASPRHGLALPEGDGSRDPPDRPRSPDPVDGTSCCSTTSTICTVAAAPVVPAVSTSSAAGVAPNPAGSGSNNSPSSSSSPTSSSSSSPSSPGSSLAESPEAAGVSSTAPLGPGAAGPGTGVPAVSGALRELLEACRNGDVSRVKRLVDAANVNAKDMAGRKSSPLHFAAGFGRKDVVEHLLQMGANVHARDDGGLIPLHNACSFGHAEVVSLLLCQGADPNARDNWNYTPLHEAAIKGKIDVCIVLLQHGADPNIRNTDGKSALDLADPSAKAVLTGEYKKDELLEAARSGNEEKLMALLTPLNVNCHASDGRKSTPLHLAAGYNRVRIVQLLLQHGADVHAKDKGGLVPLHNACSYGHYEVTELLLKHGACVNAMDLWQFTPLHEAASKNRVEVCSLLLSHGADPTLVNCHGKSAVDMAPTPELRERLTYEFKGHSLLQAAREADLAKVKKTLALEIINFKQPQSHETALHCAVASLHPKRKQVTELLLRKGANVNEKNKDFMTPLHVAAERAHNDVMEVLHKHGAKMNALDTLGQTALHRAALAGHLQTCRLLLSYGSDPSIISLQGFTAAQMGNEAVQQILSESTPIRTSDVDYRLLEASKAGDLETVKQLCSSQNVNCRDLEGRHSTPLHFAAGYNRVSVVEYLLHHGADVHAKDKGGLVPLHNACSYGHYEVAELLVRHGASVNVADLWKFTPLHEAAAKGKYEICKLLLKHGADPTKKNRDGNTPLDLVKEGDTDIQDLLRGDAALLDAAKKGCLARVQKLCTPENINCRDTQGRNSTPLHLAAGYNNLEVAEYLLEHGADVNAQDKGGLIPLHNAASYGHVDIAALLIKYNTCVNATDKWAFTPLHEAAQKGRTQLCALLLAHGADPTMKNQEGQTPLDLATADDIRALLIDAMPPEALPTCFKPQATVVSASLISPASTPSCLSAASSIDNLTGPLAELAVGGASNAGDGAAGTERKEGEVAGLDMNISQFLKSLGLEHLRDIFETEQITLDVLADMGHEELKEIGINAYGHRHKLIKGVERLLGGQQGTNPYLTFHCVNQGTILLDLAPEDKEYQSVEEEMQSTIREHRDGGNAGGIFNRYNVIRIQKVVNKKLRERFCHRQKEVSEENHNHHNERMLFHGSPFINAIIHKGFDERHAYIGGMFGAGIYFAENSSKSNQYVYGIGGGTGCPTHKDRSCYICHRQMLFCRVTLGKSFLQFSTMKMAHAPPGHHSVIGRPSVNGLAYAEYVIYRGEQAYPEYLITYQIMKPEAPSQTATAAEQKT
UniProt P35222: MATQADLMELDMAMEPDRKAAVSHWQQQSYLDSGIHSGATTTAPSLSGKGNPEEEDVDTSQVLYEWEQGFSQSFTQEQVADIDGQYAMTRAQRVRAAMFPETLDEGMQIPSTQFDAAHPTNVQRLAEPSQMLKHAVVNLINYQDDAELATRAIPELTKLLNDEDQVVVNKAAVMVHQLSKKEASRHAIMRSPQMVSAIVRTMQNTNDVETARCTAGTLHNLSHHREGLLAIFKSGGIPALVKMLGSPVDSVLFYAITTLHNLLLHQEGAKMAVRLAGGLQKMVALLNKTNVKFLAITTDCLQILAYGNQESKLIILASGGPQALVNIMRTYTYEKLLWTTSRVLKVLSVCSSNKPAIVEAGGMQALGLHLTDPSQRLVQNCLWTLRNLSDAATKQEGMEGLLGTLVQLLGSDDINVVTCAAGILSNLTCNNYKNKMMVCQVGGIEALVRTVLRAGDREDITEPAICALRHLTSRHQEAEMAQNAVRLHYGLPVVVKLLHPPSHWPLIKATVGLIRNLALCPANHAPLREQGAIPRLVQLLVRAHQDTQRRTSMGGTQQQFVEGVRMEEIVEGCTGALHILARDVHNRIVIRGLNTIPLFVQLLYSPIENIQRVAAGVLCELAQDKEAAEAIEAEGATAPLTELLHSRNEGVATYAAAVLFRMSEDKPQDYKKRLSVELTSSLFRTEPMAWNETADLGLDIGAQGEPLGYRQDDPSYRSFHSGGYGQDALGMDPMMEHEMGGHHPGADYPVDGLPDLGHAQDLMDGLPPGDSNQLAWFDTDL

Columns and labels:
[1] = target: Axis inhibition protein 1 (Axin1) (human (endogenous in SW480)) (UniProt O15169); experiment: co-IP; SW480 lysate (cells transfected with control or PrxII-1 siRNA; BIO for 1 h before lysis in some samples), IP with anti-Axin1 antibody or control IgG, immunoblot
[2] = target: Flag-TNKS1, full-length tankyrase-1 (1–1327) (human) (UniProt O95271); experiment: co-IP; HEK293 cells co-transfected with Flag-TNKS1 (whole or truncated) and Myc-tagged PrxII (WT or Gly mutants), IP with anti-M2 (Flag) antibody, blot with anti-Myc
[3] = target: Flag-TNKS1, full-length tankyrase-1 (1–1327) (human) (UniProt O95271); experiment: co-IP; additional co-IP experiment with the PrxI-T111R mutant and TNKS1, told only in the discussion, no figure

Row | Molecule | binding [2] | also measured
1 | phospho-β-catenin (from UniProt P35222 1-781) | – | binding [1]: binds
2 | B1 | binds | –
3 | B2 | binds | –
4 | B3 | binds | –
5 | B4 | no binding | –
6 | B5 | – | binding [3]: no binding
